Results are given in words; binding and its absence hold for the method and conditions named. Some binding calls cover weakened binding; strength is not graded here. Tags and fused reporters may be left off the sequences shown.
Columns and labels:
Assay in all cases: two-hybrid; Gal4 system; baits in pGBKT7 (BD), preys in pGADT7 (AD), cotransformed into yeast AH109; growth on dropout medium lacking Leu, Trp, His and Ade for 4 days
[1] = molecular target: T1, BD-PRR5^1-180 (Arabidopsis thaliana) (UniProt Q6LA42)
T1 sequence: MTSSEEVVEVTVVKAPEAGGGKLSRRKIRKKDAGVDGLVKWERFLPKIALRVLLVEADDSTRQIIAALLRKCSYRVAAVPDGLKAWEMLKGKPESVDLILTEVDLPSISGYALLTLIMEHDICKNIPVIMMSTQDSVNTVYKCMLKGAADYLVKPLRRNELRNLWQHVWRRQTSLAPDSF

The chains behind the UniProt entries cited, without tags or fusion partners.
UniProt P92973: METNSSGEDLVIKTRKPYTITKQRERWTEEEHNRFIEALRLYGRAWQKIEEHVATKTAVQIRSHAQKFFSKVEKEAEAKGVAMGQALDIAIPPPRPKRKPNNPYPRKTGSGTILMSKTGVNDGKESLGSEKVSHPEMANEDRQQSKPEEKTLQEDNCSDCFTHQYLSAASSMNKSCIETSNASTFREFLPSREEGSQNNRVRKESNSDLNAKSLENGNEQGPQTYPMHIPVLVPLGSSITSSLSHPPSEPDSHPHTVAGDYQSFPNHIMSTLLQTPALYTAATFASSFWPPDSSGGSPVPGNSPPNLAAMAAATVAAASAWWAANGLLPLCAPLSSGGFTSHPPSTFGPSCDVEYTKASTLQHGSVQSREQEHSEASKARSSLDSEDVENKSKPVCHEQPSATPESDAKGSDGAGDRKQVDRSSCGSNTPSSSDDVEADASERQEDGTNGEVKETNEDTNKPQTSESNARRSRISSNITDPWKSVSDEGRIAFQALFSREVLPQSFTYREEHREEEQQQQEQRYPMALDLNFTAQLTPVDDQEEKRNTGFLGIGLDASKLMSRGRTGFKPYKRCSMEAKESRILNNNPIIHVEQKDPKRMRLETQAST

[2] = molecular target: T2, BD-PRR5^172-558 (Arabidopsis thaliana) (UniProt Q6LA42)
T2 sequence: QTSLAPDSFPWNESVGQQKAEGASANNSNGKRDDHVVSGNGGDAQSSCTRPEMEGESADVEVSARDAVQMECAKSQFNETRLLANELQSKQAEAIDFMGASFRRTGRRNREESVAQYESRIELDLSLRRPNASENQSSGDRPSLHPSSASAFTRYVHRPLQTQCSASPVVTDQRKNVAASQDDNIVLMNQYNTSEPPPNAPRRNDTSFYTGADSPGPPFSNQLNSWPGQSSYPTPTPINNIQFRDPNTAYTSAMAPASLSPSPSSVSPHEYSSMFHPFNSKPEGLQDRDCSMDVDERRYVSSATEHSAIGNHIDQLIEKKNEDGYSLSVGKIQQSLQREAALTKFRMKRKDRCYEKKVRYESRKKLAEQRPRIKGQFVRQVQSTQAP

[3] = molecular target: T3, BD-TOC1 (TIMING OF CAB EXPRESSION1, full length, fused to the Gal4 DNA-binding domain) (Arabidopsis thaliana) (UniProt Q9LKL2)
T3 sequence: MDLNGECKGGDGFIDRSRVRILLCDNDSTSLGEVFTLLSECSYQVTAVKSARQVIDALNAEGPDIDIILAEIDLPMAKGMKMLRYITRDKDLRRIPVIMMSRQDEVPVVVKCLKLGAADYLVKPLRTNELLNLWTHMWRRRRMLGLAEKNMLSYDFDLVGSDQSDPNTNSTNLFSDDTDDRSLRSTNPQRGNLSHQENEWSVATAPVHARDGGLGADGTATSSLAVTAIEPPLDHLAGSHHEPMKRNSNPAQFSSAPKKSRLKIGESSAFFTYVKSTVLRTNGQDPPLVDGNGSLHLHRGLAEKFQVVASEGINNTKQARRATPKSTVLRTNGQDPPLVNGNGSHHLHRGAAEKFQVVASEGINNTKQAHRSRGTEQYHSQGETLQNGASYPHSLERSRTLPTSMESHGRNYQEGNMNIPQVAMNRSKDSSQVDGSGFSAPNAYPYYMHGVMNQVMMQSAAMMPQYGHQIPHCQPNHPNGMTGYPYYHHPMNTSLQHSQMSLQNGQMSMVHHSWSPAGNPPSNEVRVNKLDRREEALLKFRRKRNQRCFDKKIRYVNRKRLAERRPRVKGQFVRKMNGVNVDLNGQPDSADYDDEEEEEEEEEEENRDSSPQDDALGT

[4] = molecular target: BD-CCA1 (… CLOCK-ASSOCIATED1, full length, fused to the Gal4 DNA-binding domain) (Arabidopsis thaliana) (UniProt P92973)
[5] = molecular target: T4, BD-LHY (LATE ELONGATED HYPOCOTYL, full length, fused to the Gal4 DNA-binding domain) (Arabidopsis thaliana) (UniProt Q6R0H1)
T4 sequence: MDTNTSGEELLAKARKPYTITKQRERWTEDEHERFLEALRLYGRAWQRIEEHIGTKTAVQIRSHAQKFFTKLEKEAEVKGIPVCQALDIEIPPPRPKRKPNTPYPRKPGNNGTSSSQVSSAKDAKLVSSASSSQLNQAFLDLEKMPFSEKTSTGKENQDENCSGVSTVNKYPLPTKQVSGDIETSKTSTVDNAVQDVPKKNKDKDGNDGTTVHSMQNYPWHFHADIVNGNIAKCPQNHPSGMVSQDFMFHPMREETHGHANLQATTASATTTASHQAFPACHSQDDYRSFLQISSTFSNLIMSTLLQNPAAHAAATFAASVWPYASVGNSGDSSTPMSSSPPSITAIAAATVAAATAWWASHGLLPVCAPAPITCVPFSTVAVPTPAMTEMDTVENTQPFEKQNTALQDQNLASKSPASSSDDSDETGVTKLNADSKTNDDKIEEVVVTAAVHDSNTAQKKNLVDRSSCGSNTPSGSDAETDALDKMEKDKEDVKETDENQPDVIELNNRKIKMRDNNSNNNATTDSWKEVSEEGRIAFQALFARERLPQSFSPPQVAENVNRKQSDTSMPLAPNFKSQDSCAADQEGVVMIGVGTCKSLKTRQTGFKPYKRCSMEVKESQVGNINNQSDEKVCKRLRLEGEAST

[6] = molecular target: T5, BD-PRR5^502-558 (Arabidopsis thaliana) (UniProt Q6LA42)
T5 sequence: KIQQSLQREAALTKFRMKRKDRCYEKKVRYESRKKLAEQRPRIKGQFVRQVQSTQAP

binding [1]: no binding
binding [2]: binds
binding [3]: no binding
binding [4]: no binding
binding [5]: no binding
binding [6]: no binding
B1: AD-ABI5 (ABSCISIC ACID-…5, full length, fused to the Gal4 activation domain) (protein, UniProt Q9SJN0 1-442)
chain: MVTRETKLTSEREVESSMAQARHNGGGGGENHPFTSLGRQSSIYSLTLDEFQHALCENGKNFGSMNMDEFLVSIWNAEENNNNQQQAAAAAGSHSVPANHNGFNNNNNNGGEGGVGVFSGGSRGNEDANNKRGIANESSLPRQGSLTLPAPLCRKTVDEVWSEIHRGGGSGNGGDSNGRSSSSNGQNNAQNGGETAARQPTFGEMTLEDFLVKAGVVREHPTNPKPNPNPNQNQNPSSVIPAAAQQQLYGVFQGTGDPSFPGQAMGVGDPSGYAKRTGGGGYQQAPPVQAGVCYGGGVGFGAGGQQMGMVGPLSPVSSDGLGHGQVDNIGGQYGVDMGGLRGRKRVVDGPVEKVVERRQRRMIKNRESAARSRARKQAYTVELEAELNQLKEENAQLKHALAELERKRKQQYFESLKSRAQPKLPKSNGRLRTLMRNPSCPL

— PMC8462813
